Results from PubChem BioAssay AID1508624 (National Center for Advancing Translational Sciences (NCATS), 2021).
In all, about 48,000 compounds went through this assay and about 120 (0.25%) were called active. About 4% were inconclusive and are not listed. Calls follow the shape of the dose curve; as a rule, active = well fitted activation curve with a large enough effect; inconclusive = small, poorly fitted or top-dose-only effect, or another doubt; inactive = no such curve, though single readings can be large or run the other way. The list shows a part of the results.

Assay: Primary qHTS for Identification of Small Molecule Activators of Huntingtin-Antisense Promoter Activity; also: nearly all actives have a fitted effect of over 55% in size
Conditions: HEK293 HTT-AS promoter firefly luciferase reporter, 24 h; series mostly up to 57.5 µM; activity change, positive = activation: at the top concentration
How it was run: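 HEK293 Fluc reporter, 2,500 cells/well, 24 h pre-culture; cpds up to 57.5 uM final, 24 h 37 degrees C; Dual-Glo, 10 min RT; normalized vehicle = 0%, zero RLU = -100%.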

Activity change, positive = activation, inactive:
CCOC(=O)N1CCc2c(sc3c2c(=O)n(Cc2ccccc2)c(=O)n3CC(=O)Nc2c(C)cccc2C)C1 -20.7%
Cn1c(=O)c(=O)n(C)c2cc(S(=O)(=O)N3CCN(c4ccccc4F)CC3)ccc21 -31.4%
COc1ccc(C(=O)NCC(c2cccnc2)N2CCN(c3ccc(F)cc3)CC2)cc1 (stereo not given) -26.2%
O=C(NCC(c1ccc(Cl)cc1)N1CCCCC1)c1ccc(F)cc1 (stereo not given) -5.15%
COc1cccc(-c2cc(C(F)(F)F)nc(-n3nc(C)c(Br)c3C)n2)c1 -16.7%
Nc1nc(N)c(S(=O)(=O)c2ccccc2)c(Nc2ccc(Br)cc2)n1 -38.4%
Cc1ccc(-n2c(SCc3ccccc3F)nc3[nH]ncc3c2=O)cc1C -3.38% [at 11.5 µM, percent change from vehicle, -100% = no light]
COc1ccccc1CNC(=O)c1cccn1-c1nnc(N2CCCC2)s1 4.12%
Cc1cccc(NC(=O)Cn2nc(-c3ccc(Cl)cc3)c3ccccc3c2=O)c1 -17.2%
O=C(CSc1ccc2nc(-c3ccccc3)cn2n1)Nc1ccccc1C(F)(F)F -34.3%
Cc1cccc(NC(=O)C(=O)c2cc(C)n(-c3ccccc3)c2C)c1C -2.58%
CCOc1cccc2cc(-c3nc4sc(C(=O)Nc5ccc(C)cc5)c(C)c4c(=O)[nH]3)c(=O)oc12 -14.1%
Clc1cccc(-c2nnc(CN3CCN(c4ccccn4)CC3)o2)c1 -3.04%
Cc1cc(S(=O)(=O)Nc2cc3c(cc2N2CCOCC2)n(C)c(=O)n3C)ccc1F -15.1%
COC(=O)c1c(SCC(=O)Nc2cccc(C(F)(F)F)c2)[nH]c2ccccc2c1=O 9.65%
CCc1nc2ccc(C(=O)NCCc3ccc(SC)cc3)cc2nc1CC 28.4%
COc1ccc(NC(=O)C(CC(C)C)NC(=O)C2CCCCC2)c(OC)c1 (stereo not given) -10.6%
COc1ccc(-n2c(=O)c3ccccc3n(Cc3ccc(F)cc3Cl)c2=O)cc1OC -9.7%
COc1ccc(NC(=O)C2CCN(C(=O)c3sc4nc[nH]c(=O)c4c3C)CC2)c(OC)c1 -1.4%
CCc1ccccc1N1CC(c2nnc(NC(=O)c3ccco3)s2)CC1=O (stereo not given) -13%
CCN(CC)S(=O)(=O)c1ccc2c(c1)N(CC(=O)N1CCN(c3cc(Cl)ccc3C)CC1)C(=O)CO2 -10.6%
Cc1cccc(N2CCN(c3nc4ccccc4c4nc(-c5ccccc5)nn34)CC2)c1C -5.75%
CC(=O)OCc1cnc(C)c2oc(=O)c(C(=O)Nc3ccc(F)cc3C)cc12 -10.4%
CC(=O)Nc1nonc1-c1nnc(SCC(=O)Nc2ccccc2Cl)n1C -13.1%
COc1cc(NC(=O)c2cc(-c3ccccc3O)no2)cc(OC)c1OC -30%
